The record followed here is the supplement of paper PMC10369915.

This is one part of the list. No stated cut-off is given here; in the data, active = 3.2 or more and inactive = the rest. Only a few entries rise above the background.
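Further: displayed peptides selected on beads carrying the immobilized SH2 domain, with library peptides lacking any tyrosine serving as negative controls.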

In one experiment the target is SHP2 C-SH2 domain E139D. Kind of experiment: enrichment score (SH2-bound / input frequency) (ratio); bacterial display of known human phosphotyrosine sites (pTyr-Var adds point mutants) read by sequencing; higher = stronger binding; tyrosines were phosphorylated by kinases first. The settings on record: peptide library: Human pTyr.
Consider MAMLMEKYHVDHDER [DNB2_ADE12_150], for which the enrichment score was inactive: 1.15.

Regarding KPTSRLAYPVQQIAG [POL_HV2EH_130], the enrichment score is inactive: 1.77.

Regarding SSQVSQNYPIVQNLQ [POL_HV1Y2_132], the enrichment score was inactive: 0.688.

For KVEESLHYAFRHGYV [SHUT_ADE40_332], the enrichment score is inactive: 1.45.

For KIEESLHYAFRHGYV [SHUT_ADE41_334], the enrichment score is inactive: 1.69.

For the molecule NSQVSQNYPIVQNLQ [POL_HV1Z2_133], the enrichment score is inactive: 0.708.

In the case of MIKLMEKYHVEAEEK [DNB2_ADE40_141], the enrichment score was inactive: 1.56.

Consider KIEESLHYAFRHGAV [SHUT_ADE41_334_YA], for which the enrichment score was inactive: 1.23.

As to MNMLMERYRVESDLK [DNB2_ADE04_174], the enrichment score is inactive: 0.871.

Consider APPSGGNYPVQQLAG [POL_HV2D2_130], for which the enrichment score is inactive: 0.731.

In the case of DSKISQNYPIVQNAQ [POL_HV1V9_134], the enrichment score is inactive: 0.695.

As to NTGSSQNYPIVQNAQ [POL_HV1U4_128], the enrichment score was inactive: 0.599.

As for KIEECLHYTFRHGAV [SHUT_ADE12_349_YA], the enrichment score was inactive: 1.42.

The target of the next experiment is SHP2 C-SH2 domain wild-type. Described as above. The settings on record: peptide library: Human pTyr.
As for MAMLMEKYHVDHDER [DNB2_ADE12_150], the enrichment score is inactive: 1.11.

In the case of KPTSRLAYPVQQIAG [POL_HV2EH_130], the enrichment score was inactive: 1.68.

For SSQVSQNYPIVQNLQ [POL_HV1Y2_132], the enrichment score was inactive: 0.675.

For the molecule KVEESLHYAFRHGYV [SHUT_ADE40_332], the enrichment score was inactive: 1.45.

Take KIEESLHYAFRHGYV [SHUT_ADE41_334]: the enrichment score is inactive: 1.43.

NSQVSQNYPIVQNLQ [POL_HV1Z2_133]: the enrichment score was inactive: 0.597.

As for MIKLMEKYHVEAEEK [DNB2_ADE40_141], the enrichment score was inactive: 1.61.

Turning to KIEESLHYAFRHGAV [SHUT_ADE41_334_YA], the enrichment score was inactive: 1.36.

With MNMLMERYRVESDLK [DNB2_ADE04_174], the enrichment score was inactive: 0.646.

On to APPSGGNYPVQQLAG [POL_HV2D2_130], for which the enrichment score is inactive: 0.495.

In the case of DSKISQNYPIVQNAQ [POL_HV1V9_134], the enrichment score was inactive: 0.666.

As for NTGSSQNYPIVQNAQ [POL_HV1U4_128], the enrichment score is inactive: 0.714.

In the case of KIEECLHYTFRHGAV [SHUT_ADE12_349_YA], the enrichment score was inactive: 1.27.

The target in another experiment is SHP2 N-SH2 domain L43F. Described as above. Particulars: peptide library: Human pTyr.
On to MAMLMEKYHVDHDER [DNB2_ADE12_150], for which the enrichment score was inactive: 1.04.

Regarding KPTSRLAYPVQQIAG [POL_HV2EH_130], the enrichment score was inactive: 1.4.

On to SSQVSQNYPIVQNLQ [POL_HV1Y2_132], for which the enrichment score is inactive: 0.71.

On to KVEESLHYAFRHGYV [SHUT_ADE40_332], for which the enrichment score is inactive: 1.27.

On to KIEESLHYAFRHGYV [SHUT_ADE41_334], for which the enrichment score is inactive: 1.6.

As for NSQVSQNYPIVQNLQ [POL_HV1Z2_133], the enrichment score was inactive: 0.753.

On to MIKLMEKYHVEAEEK [DNB2_ADE40_141], for which the enrichment score is inactive: 1.46.

KIEESLHYAFRHGAV [SHUT_ADE41_334_YA]: the enrichment score is inactive: 0.951.

Take MNMLMERYRVESDLK [DNB2_ADE04_174]: the enrichment score was inactive: 0.743.

In the case of APPSGGNYPVQQLAG [POL_HV2D2_130], the enrichment score was inactive: 0.616.

On to DSKISQNYPIVQNAQ [POL_HV1V9_134], for which the enrichment score is inactive: 0.777.

For NTGSSQNYPIVQNAQ [POL_HV1U4_128], the enrichment score was inactive: 0.685.

As for KIEECLHYTFRHGAV [SHUT_ADE12_349_YA], the enrichment score is inactive: 1.26.

For another experiment, the target named is SHP2 N-SH2 domain T42A. The description is as above. Particulars: peptide library: Human pTyr.
For the molecule MAMLMEKYHVDHDER [DNB2_ADE12_150], the enrichment score was inactive: 0.846.

For KPTSRLAYPVQQIAG [POL_HV2EH_130], the enrichment score is inactive: 1.93.

For SSQVSQNYPIVQNLQ [POL_HV1Y2_132], the enrichment score is inactive: 0.646.

Take KVEESLHYAFRHGYV [SHUT_ADE40_332]: the enrichment score is inactive: 1.24.

KIEESLHYAFRHGYV [SHUT_ADE41_334]: the enrichment score was inactive: 1.36.

With NSQVSQNYPIVQNLQ [POL_HV1Z2_133], the enrichment score is inactive: 0.633.

On to MIKLMEKYHVEAEEK [DNB2_ADE40_141], for which the enrichment score was inactive: 1.26.

Consider KIEESLHYAFRHGAV [SHUT_ADE41_334_YA], for which the enrichment score was inactive: 1.01.

As to MNMLMERYRVESDLK [DNB2_ADE04_174], the enrichment score is inactive: 0.74.

Consider APPSGGNYPVQQLAG [POL_HV2D2_130], for which the enrichment score was inactive: 0.533.

As for DSKISQNYPIVQNAQ [POL_HV1V9_134], the enrichment score is inactive: 0.648.

As for NTGSSQNYPIVQNAQ [POL_HV1U4_128], the enrichment score is inactive: 0.814.

For the molecule KIEECLHYTFRHGAV [SHUT_ADE12_349_YA], the enrichment score is inactive: 1.52.

A further experiment deals with SHP2 N-SH2 domain T52S. The description is as above. The settings on record: peptide library: Human pTyr.
For the molecule MAMLMEKYHVDHDER [DNB2_ADE12_150], the enrichment score is inactive: 0.88.

On to KPTSRLAYPVQQIAG [POL_HV2EH_130], for which the enrichment score is inactive: 2.02.

SSQVSQNYPIVQNLQ [POL_HV1Y2_132]: the enrichment score is inactive: 0.57.

Regarding KVEESLHYAFRHGYV [SHUT_ADE40_332], the enrichment score was inactive: 1.33.

In the case of KIEESLHYAFRHGYV [SHUT_ADE41_334], the enrichment score is inactive: 1.69.

In the case of NSQVSQNYPIVQNLQ [POL_HV1Z2_133], the enrichment score is inactive: 0.826.

In the case of MIKLMEKYHVEAEEK [DNB2_ADE40_141], the enrichment score was inactive: 1.47.

On to KIEESLHYAFRHGAV [SHUT_ADE41_334_YA], for which the enrichment score is inactive: 0.937.

As to MNMLMERYRVESDLK [DNB2_ADE04_174], the enrichment score is inactive: 0.725.

On to APPSGGNYPVQQLAG [POL_HV2D2_130], for which the enrichment score is inactive: 0.555.

As for DSKISQNYPIVQNAQ [POL_HV1V9_134], the enrichment score was inactive: 0.738.

For NTGSSQNYPIVQNAQ [POL_HV1U4_128], the enrichment score was inactive: 0.678.

As for KIEECLHYTFRHGAV [SHUT_ADE12_349_YA], the enrichment score is inactive: 1.27.

The target of a further experiment is SHP2 N-SH2 domain wild-type. The description is as above. Particulars: peptide library: Human pTyr.
For the molecule MAMLMEKYHVDHDER [DNB2_ADE12_150], the enrichment score was inactive: 1.17.

With KPTSRLAYPVQQIAG [POL_HV2EH_130], the enrichment score is inactive: 2.41.

With SSQVSQNYPIVQNLQ [POL_HV1Y2_132], the enrichment score is inactive: 0.68.

In the case of KVEESLHYAFRHGYV [SHUT_ADE40_332], the enrichment score is inactive: 1.35.

Regarding KIEESLHYAFRHGYV [SHUT_ADE41_334], the enrichment score was inactive: 2.04.

With NSQVSQNYPIVQNLQ [POL_HV1Z2_133], the enrichment score was inactive: 0.608.

On to MIKLMEKYHVEAEEK [DNB2_ADE40_141], for which the enrichment score is inactive: 1.8.

KIEESLHYAFRHGAV [SHUT_ADE41_334_YA]: the enrichment score is inactive: 1.29.

Take MNMLMERYRVESDLK [DNB2_ADE04_174]: the enrichment score was inactive: 1.03.

With APPSGGNYPVQQLAG [POL_HV2D2_130], the enrichment score is inactive: 0.538.

As for DSKISQNYPIVQNAQ [POL_HV1V9_134], the enrichment score was inactive: 0.784.

Take NTGSSQNYPIVQNAQ [POL_HV1U4_128]: the enrichment score was inactive: 0.733.

In the case of KIEECLHYTFRHGAV [SHUT_ADE12_349_YA], the enrichment score was inactive: 1.57.
